Test results published in the supplement of paper PMC10126150.
Sequences with one replicate were seen in a single cluster, so their values are uncertain.

System: ATP
Experiment: switch fluorescence ratio, 500 uM ATP over buffer (Cy3 cluster intensity, sum of 5 cycles each) (fold (ratio)); higher = stronger signal-on switching upon ATP binding; sequences stand for … in TCGTCGGCAGCGTCAGATGTGTATAAGAGACAGTTTTTTTTTTTTTTTTTTTTTTTTT…TC
Details: aptamer strand: ATP DNA aptamer (quencher-CACCTGGGGGAGTATTGCGGAGGAAGG + anchor), 100 nM annealed; ATP concentration: 500 uM; one replicate
How it was run: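 Clusters carrying Cy3-labelled switching strands on a modified Illumina MiSeq flow-cell were annealed to 100 nM quencher-labelled ATP aptamer and imaged in selection buffer. They were imaged again after 15 min with 500 uM ATP at 22 °C, over five buffer/ATP cycles with NaOH stripping and re-annealing in between. For each cluster, the fluorescence ratio is the summed Cy3 intensity of the target cycles divided by that of the buffer cycles, averaged per switch-domain sequence. Clusters outside 100-1000 RFU were left out.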
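Further: ATP exposure 15 min at 22 °C before imaging.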

Row | Sequence | switch fluorescence ratio
1 | TGTTACTCTT | 0.956
2 | TGTTAGACGT | 1.06
3 | TGTTAGCGGA | 0.98
4 | TGTTAGCTGA | 0.975
5 | TGTTATGAAT | 1.03
6 | TGTTATTGGA | 1.04
7 | TGTTCACCTT | 1.06
8 | TGTTCACGTC | 0.987
9 | TGTTCATGAC | 1.04
10 | TGTTCGGGCT | 1
11 | TGTTGACAGA | 1
12 | TGTTGACGCA | 1.09
13 | TGTTGATTAA | 0.985
14 | TGTTGCACAT | 0.987
15 | TGTTGCACGT | 0.962
16 | TGTTGGGAAA | 0.957
17 | TGTTGGTAGA | 1.02
18 | TGTTGGTGCG | 1.01
19 | TGTTGTTAGT | 1
20 | TGTTTCTTGG | 0.973
21 | TGTTTTACAA | 0.972
22 | TGTTTTACTT | 1.09
23 | TGTTTTATGA | 0.921
24 | TGTTTTGA | 1.02
25 | TGTTTTGCAA | 5.25
26 | TGTTTTTACA | 0.965

Row | Sequence | switch fluorescence ratio
27 | TTAAAAGACA | 1.04
28 | TTAAAATTAG | 1.01
29 | TTAAACGGCC | 1.04
30 | TTAAACTAGG | 1.02
31 | TTAAAGGAAT | 1
32 | TTAAAGGGG | 1.01
33 | TTAACAACGG | 1.1
34 | TTAACAGGCG | 0.96
35 | TTAACCACGC | 1.07
36 | TTAACCGAAC | 2.07
37 | TTAACCGGCC | 1.94
38 | TTAACGCTTA | 1.5
39 | TTAACGGAA | 1.05
40 | TTAAGAGTAC | 1.03
41 | TTAAGCAAAA | 1.15
42 | TTAAGCCAAT | 1.03
43 | TTAAGCGCCG | 0.998
44 | TTAAGCTTTC | 1.42
45 | TTAAGGACCA | 1.03
46 | TTAAGGATGC | 1.08
47 | TTAAGTAAGT | 1.03
48 | TTAAGTCGGA | 0.997
49 | TTAAGTTTAT | 0.985
50 | TTAATCCCAA | 1.08
51 | TTAATCTTAC | 1.21
52 | TTAATGATA | 0.954

Row | Sequence | switch fluorescence ratio
53 | TTAATGCGAA | 0.972
54 | TTAATGGAGT | 0.987
55 | TTAATGTGA | 0.998
56 | TTAATTATTC | 0.968
57 | TTAATTTTAA | 0.989
58 | TTACAAAGTG | 0.98
59 | TTACAATGTA | 1.02
60 | TTACACATCC | 1.03
61 | TTACAGGGAT | 0.978
62 | TTACAGTTAT | 1.02
63 | TTACATCGAT | 1.04
64 | TTACCAAACA | 1.06
65 | TTACCATCTT | 1.06
66 | TTACCCTTGC | 1.48
67 | TTACCCTTTT | 1
68 | TTACCGCGGA | 1.02
69 | TTACCGGCAG | 0.964
70 | TTACCGTATT | 1.06
71 | TTACCTAATT | 1
72 | TTACCTATTG | 0.995
73 | TTACCTGGTT | 1.05
74 | TTACCTTCCA | 1.98
75 | TTACGACGGG | 0.993
76 | TTACGACTCA | 1.11
77 | TTACGAGAAC | 1.53
78 | TTACGATAGG | 1.1

Row | Sequence | switch fluorescence ratio
79 | TTACGATCGA | 1.03
80 | TTACGCTAGG | 2.12
81 | TTACGGGTGT | 1.01
82 | TTACGTAATT | 1.16
83 | TTACGTAGAA | 1.09
84 | TTACGTCAGG | 1.05
85 | TTACGTCCGG | 1.04
86 | TTACGTCGTA | 0.991
87 | TTACGTGGCT | 0.986
88 | TTACGTGTTT | 1.03
89 | TTACGTTGCG | 1.01
90 | TTACTACTTA | 1.06
91 | TTACTCAATT | 1.05
92 | TTACTCCTAG | 1.09
93 | TTACTGACGG | 1.27
94 | TTACTGATGC | 1.05
95 | TTACTGATT | 1.01
96 | TTACTGCCGC | 1.05
97 | TTACTGTACA | 1.46
98 | TTACTTACAA | 1.09
99 | TTACTTGGTT | 1
100 | TTAGAACCAG | 1.04
101 | TTAGAAGAAG | 1.01
102 | TTAGAAGTC | 0.981
103 | TTAGAGAGAG | 1.03
104 | TTAGAGATCA | 1.13

Row | Sequence | switch fluorescence ratio
105 | TTAGAGGTA | 0.965
106 | TTAGAGTTT | 0.984
107 | TTAGATCAAC | 0.922
108 | TTAGATCGAG | 0.998
109 | TTAGATCGTA | 0.977
110 | TTAGATTTA | 0.995
111 | TTAGATTTAC | 0.992
112 | TTAGCAAATT | 1.8
113 | TTAGCAAGGT | 1.22
114 | TTAGCACATG | 1.03
115 | TTAGCATGCG | 1.04
116 | TTAGCCAGTT | 0.965
117 | TTAGCCCTTT | 1.02
118 | TTAGCCGTGA | 1.02
119 | TTAGCGCTCC | 1.61
120 | TTAGCTACGG | 1.08
121 | TTAGCTGCAG | 1.05
122 | TTAGGACCTA | 1.05
123 | TTAGGCCATT | 0.993
124 | TTAGGCGAAG | 1.03
125 | TTAGGGGCCG | 1.01
126 | TTAGGGGTC | 1
127 | TTAGGGTGCT | 0.995
128 | TTAGGTAAAA | 0.958
129 | TTAGGTCGT | 0.996
130 | TTAGTAAAGC | 0.956

Row | Sequence | switch fluorescence ratio
131 | TTAGTAGAGA | 1.11
132 | TTAGTAGTCC | 1.02
133 | TTAGTATGCC | 0.994
134 | TTAGTCGGGT | 1.01
135 | TTAGTGAATA | 0.978
136 | TTAGTGACGG | 0.966
137 | TTAGTGCG | 1.04
138 | TTAGTGGCTC | 1
139 | TTAGTGTAGT | 1.03
140 | TTAGTTACGC | 1.01
141 | TTAGTTGTTG | 0.961
142 | TTAGTTTACA | 1.05
143 | TTATAACTAG | 0.986
144 | TTATAACTT | 0.992
145 | TTATACTTGG | 0.994
146 | TTATAGCAAA | 1.05
147 | TTATAGCGAC | 1.13
148 | TTATAGCTCG | 1
149 | TTATAGGACT | 1.04
150 | TTATAGGTGA | 1.02
151 | TTATAGTAAG | 1.01
152 | TTATATCGAC | 1.1
153 | TTATCAAATT | 0.998
154 | TTATCAATG | 1
155 | TTATCCCGGG | 1.01
156 | TTATCCGTC | 1.02

Row | Sequence | switch fluorescence ratio
157 | TTATCCTATG | 1
158 | TTATCCTCAC | 1.07
159 | TTATCCTGAG | 1.15
160 | TTATCGACGA | 1.08
161 | TTATCGCCTG | 1.04
162 | TTATCGGCTA | 1.05
163 | TTATCTAGTC | 0.975
164 | TTATCTTGCG | 0.968
165 | TTATCTTTTC | 1.02
166 | TTATGAGAGG | 0.996
167 | TTATGATATG | 1.01
168 | TTATGATCAT | 1
169 | TTATGCTCCA | 1.01
170 | TTATGGAAAA | 0.984
171 | TTATGGAGTG | 0.944
172 | TTATGGATTC | 0.991
173 | TTATGGCTAA | 0.999
174 | TTATGGTTCC | 0.967
175 | TTATGGTTT | 1.02
176 | TTATGTACCG | 1.01
177 | TTATGTACGG | 1.02
178 | TTATGTATC | 1.01
179 | TTATGTTGC | 1
180 | TTATTGCAG | 0.966
181 | TTATTGTCGG | 0.963
182 | TTATTGTCGT | 0.996

Row | Sequence | switch fluorescence ratio
183 | TTATTTGAGA | 0.989
184 | TTATTTTCGC | 1.01
185 | TTCAAAACGG | 1.04
186 | TTCAAAACTA | 1.05
187 | TTCAAAGAGA | 0.97
188 | TTCAACCACT | 1.17
189 | TTCAACGCCG | 0.946
190 | TTCAAGCCAC | 1.12
191 | TTCAAGGAAC | 0.992
192 | TTCAAGGCGA | 1.06
193 | TTCAATCCTG | 1.01
194 | TTCAATTCTT | 0.993
195 | TTCACAACTG | 1.02
196 | TTCACAGGTT | 1.11
197 | TTCACATTTA | 0.997
198 | TTCACCGAAG | 1.06
199 | TTCACCGGC | 1.05
200 | TTCACGTCGG | 1.03
201 | TTCACTGAAA | 1
